From PubChem BioAssay AID1030 (National Center for Advancing Translational Sciences (NCATS), 2008)
Screen size: about 220,000 compounds; about 16,000 (7.3%) were called active. Inconclusive results, whose numbers are uncertain, are shown with a selection of clear calls. Calls come from the whole dose curve; as a rule, active = well fitted inhibition curve with a large enough effect (not every such curve was filed as active); inconclusive = small, poorly fitted or top-dose-only effect, or another doubt; inactive = no such curve, though single readings can be large or run the other way. Potencies of inconclusive entries are left out as doubtful fits.

Target: Aldehyde dehydrogenase 1A1 (Homo sapiens) (UniProt P00352)
Chain of UniProt P00352 (P00352 whole entry, looked up): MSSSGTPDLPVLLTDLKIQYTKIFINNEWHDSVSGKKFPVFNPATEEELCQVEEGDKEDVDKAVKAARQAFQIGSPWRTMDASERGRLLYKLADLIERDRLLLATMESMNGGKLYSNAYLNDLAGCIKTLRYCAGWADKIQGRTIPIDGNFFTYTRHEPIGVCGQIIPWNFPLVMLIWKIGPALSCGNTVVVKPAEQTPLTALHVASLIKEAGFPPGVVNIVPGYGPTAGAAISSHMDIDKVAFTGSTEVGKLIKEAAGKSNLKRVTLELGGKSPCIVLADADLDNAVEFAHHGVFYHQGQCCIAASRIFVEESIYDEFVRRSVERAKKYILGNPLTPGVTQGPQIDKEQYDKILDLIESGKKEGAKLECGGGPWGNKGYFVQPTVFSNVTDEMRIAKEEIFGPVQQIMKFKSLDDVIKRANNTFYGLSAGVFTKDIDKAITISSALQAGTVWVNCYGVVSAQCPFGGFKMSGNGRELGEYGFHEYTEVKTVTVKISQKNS
Assay: qHTS Assay for Inhibitors of Aldehyde Dehydrogenase 1 (ALDH1A1);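 for activity, negative = inhibition: plate controls were no enzyme wells and a reference inhibitor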
Details: Purified ALDH1A1, NADH fluorescence, propionaldehyde substrate; series mostly up to 75.3 µM
Potency is the fitted concentration of half-maximal effect; tags give direction and shape of the fitted curve.

SMILES	Potency	activity, negative = inhibition
COc1ccc(C(C)=O)cc1COC(=O)CNC(=O)c1ccccc1F	active: 7.08 µM	
CC#CCOCC/C=C1/c2ccccc2C(OC)C1C (stereo unspecified)		inactive: -7.86% [at 13.5 µM]
COc1ccc2nc(N3CCCCC3)c(C#N)cc2c1	inconclusive [inhibitor, partial curve]	
COc1ccccc1N1CCN(CC(=O)Nc2ccc(C)c(F)c2)CC1	active: 14.1 µM	
CCCCC(CC)COC(=O)c1ccccc1O (stereo unspecified)	inactive	
Cc1cc(N/C=C/C(=O)c2cccs2)ccc1F	inconclusive [inhibitor, single point]	
C=CCc1cc(/C=N\NC(=O)CSc2nnc(CCCc3ccc(OC)c(C)c3)o2)cc(OC)c1O	inactive	
COc1ccc(Oc2ncc3nc(-c4ccc(F)cc4)c(=O)n(C4CC4)c3n2)cc1	inconclusive [inhibitor, single point]	
C#CCOCCOCCOCCNc1nc(N2CCN(C(=O)[C@H](Cc3cc4ccccc4[nH]3)n3cc([C@@H](N)C(C)CC)nn3)CC2)nc(N2CCN(C(=O)[C@H](Cc3cc4ccccc4[nH]3)n3cc([C@@H](N)CC(C)C)nn3)CC2)n1 (stereo partly specified)	inactive	
Cc1cc(=O)n2cc(-c3ccccc3)nc2[nH]1	inconclusive [inhibitor, partial curve]	
CCCn1c(CNc2ccc(Br)cc2)nc2ccccc21	inactive	
CCN(CC)c1ccc(C(=O)N/N=C/c2ccc(OC)cc2OC)cc1	inconclusive [inhibitor, single point]	
N[C@@H](Cc1ccc(F)cc1)C(=O)O	inconclusive [inhibitor, partial curve, poor fit]	
Cc1[nH]n(-c2ccccc2)c(=O)c1N=Nc1ccc2c(c1)OCCO2	inconclusive [inhibitor, single point]	
CCc1ccc(C(C)NC(=O)Cn2cnc3c(=O)n(C)c(=O)n(C)c32)cc1 (stereo unspecified)	active: 28.2 µM	
CN1C(=O)c2cccc3c(S(=O)(=O)NCc4ccco4)ccc1c23	active: 14.1 µM	
CCOCCCNC(=O)C(c1ccc(Cl)cc1)N(Cc1ccc2c(c1)OCO2)C(=O)CNC(C)=O (stereo unspecified)	inconclusive [inhibitor, partial curve]	
COc1ccc(C(CNC(=O)COc2ccc(F)cc2Br)N2CCCC2)cc1 (stereo unspecified)	inconclusive [inhibitor, single point]	
O=C(NC1CCCCC1)C(c1ccc(F)cc1)N(CCN1CCOCC1)C(=O)c1ccc(-c2ccccc2)[nH]1 (stereo unspecified)	inactive	
Cc1cc(N2CCN(C(=O)c3ccco3)CC2)n2nc(C)c(-c3ccccc3)c2n1	inconclusive [inhibitor, partial curve]	
CCCN(CCC)CCCNC(=O)c1cc2cc3ccc(OC)cc3nc2o1	inconclusive [inhibitor, partial curve]	
Nc1nc2ncc(C(=O)c3cc(Cl)cc(Cl)c3O)cc2s1	inconclusive [inhibitor, single point]	
COc1ccc(N2CC(C(=O)N/N=C/c3cc([N+](=O)[O-])ccc3O)CC2=O)cc1 (stereo unspecified)	inconclusive [inhibitor, partial curve]	
COc1cccc2c(C)nc(Nc3nc(CSc4nnc(C)s4)cc(=O)[nH]3)nc12	inconclusive [inhibitor, single point]	

SMILES	Potency	activity, negative = inhibition
Cc1c(Cl)c([N+](=O)[O-])nn1CCCC(=O)Nc1cccc(O)c1	inconclusive [inhibitor, single point]	
CCCCN(CC)S(=O)(=O)N1CCC(C(=O)NCCCN2CCOCC2)CC1	inconclusive [inhibitor, partial curve]	
O=C(CSc1ccc(Cl)cc1)OCc1nnc(-c2ccccc2)o1	inconclusive [inhibitor, single point]	
CC(=O)N1CCC2(CCCN(c3ccc(-c4ccccc4)cc3)C2)CC1	inconclusive [inhibitor, single point]	
N#C/C(=C\c1c(N2CCC(C(N)=O)CC2)nc2ccccn2c1=O)S(=O)(=O)c1ccccc1	inconclusive [inhibitor, single point]	
CCN(CC)S(=O)(=O)c1ccc(N2CCCC2)c(NC(=O)c2ccncc2)c1	active: 15.8 µM	
COc1ccc(-c2noc(CCC(=O)N3CCC(C)CC3)n2)cc1	inconclusive [inhibitor, partial curve]	
COc1ccccc1C1C(C(=O)c2sc(C)nc2C)=C(O)C(=O)N1CCN1CCOCC1 (stereo unspecified)	inconclusive [inhibitor, single point]	
O=C(c1ccc2c(c1)OCO2)N1CCN(c2ccc(Cl)cc2)CC1	inconclusive [inhibitor, single point]	
CC(C)NC(=O)NCCCCCCS(C)=O (stereo unspecified)	inactive	
CCOC(=O)c1ccc(N2C(=O)CC(N3CC(C)OC(C)C3)C2=O)cc1 (stereo unspecified)	active: 7.94 µM	
O=C(Oc1ccccc1)N1CCC2(CCCN(c3ccccn3)C2)CC1	inconclusive [inhibitor, single point]	
CCOC(=O)COc1ccc(C2NC(C(=O)O)CS2)cc1 (stereo unspecified)	inconclusive [inhibitor, single point]	
Cc1nnsc1NC(=O)OCC(C)(C)C	inactive	
COC(=O)c1[nH]c2ccc(Br)cc2c1NC(=O)Oc1ccccc1	inconclusive [inhibitor, partial curve]	
COc1ccc(NC(=O)C2CCN(C(=O)c3cccs3)CC2)cc1OC	inconclusive [inhibitor, partial curve]	
COc1ccccc1N(Cc1cc(=O)[nH]c2ccccc12)C(=O)c1ccc([N+](=O)[O-])cc1	inconclusive [inhibitor, single point]	
CCc1ccccc1NC(=S)N1CCNC(=O)C1CC(=O)OC (stereo unspecified)	inactive	
COc1ccc(N2C(=O)CC(SC(C)C)C2=O)cc1 (stereo unspecified)	inactive	
C=CCNC(=O)c1oc2ccc(S(=O)(=O)N(CC)CC)cc2c1C	active: 20 µM	
CC1Cc2ccccc2N1C(=O)CSc1nnc(CSc2ncccn2)n1C (stereo unspecified)	inconclusive [inhibitor, single point]	
CCCOc1ccc(/C=N/NC(=S)Nc2ccccc2[N+](=O)[O-])c(O)c1	inactive	
Oc1ccc(Nc2nc(NCC3CCCO3)c3ccccc3n2)cc1 (stereo unspecified)	inactive	
Cc1cc(C(=O)CSc2nnc(-c3ccccc3)n2Cc2ccc3c(c2)OCO3)c(C)n1C	inactive	

SMILES	Potency	activity, negative = inhibition
COc1ccc(/C=C/C(=O)NC(=S)NNC(=O)c2c(-c3ccccc3)noc2C)cc1	inconclusive [inhibitor, single point]	
CCC(CC)C(=O)Nc1cc(C)c2c(=O)oc3ccccc3c2n1	inconclusive [inhibitor, partial curve]	
Cc1cc(-c2[nH]nc3c2C(c2ccc(Cl)cc2)C(C#N)=C(N)O3)c(C)s1 (stereo unspecified)	inconclusive [inhibitor, partial curve]	
COC(=O)c1sccc1NC(=O)C1CC=CCC1C(=O)O (stereo unspecified)	inconclusive [inhibitor, single point]	
CCn1c(SCC(=O)Nc2cc(C)on2)nnc1-c1ccc(S(=O)(=O)N2CCCC2)cc1	inconclusive [inhibitor, single point]	
CCOc1ccc2oc(C(=O)OCC(=O)NC(=O)NC)c(C)c2c1	inconclusive [inhibitor, single point]	
O=C(CCCOc1ccc(Cl)cc1)NCC1CCCO1 (stereo unspecified)	inconclusive [inhibitor, single point]	
CCOC(=O)c1sc(N)nc1-c1ccccc1	inconclusive [inhibitor, single point]	
COc1ccc(NC(=O)c2ccc(NCCCN3CCOCC3)c([N+](=O)[O-])c2)cc1	inactive	
CCOc1cc(NC(=S)NCCCN2CCOCC2)c(OCC)cc1NC(=O)C1CC1	inactive	
CCN1CCN(C(=S)Nc2cccc([N+](=O)[O-])c2)CC1	inactive	
N/C(=N\OC(=O)c1ccc2c(c1)OCO2)c1cccc([N+](=O)[O-])c1	inactive	
CCOC(=O)N1CCN(C(=O)CSCC(=O)N=c2sc3ccccc3n2C)CC1	inconclusive [inhibitor, single point]	
CCOC(=O)COc1c(C=O)cc(Br)cc1OC	inconclusive [inhibitor, single point]	
O=C(c1cccc(Cl)c1)N1CCN(C(=O)c2ccccc2F)CC1	inconclusive [inhibitor, partial curve]	
Cc1ccc(C(=O)CN2/C(=C(\O)c3ccccc3)C(=O)c3ccccc3S2(=O)=O)c(C)c1	active: 2.82 µM	
O=C1C2CCCN2C(c2ccccc2)N1c1ccc(Cl)cc1 (stereo unspecified)	inactive	
O=C(NCc1cn2ccccc2n1)c1ccc2c(c1)OCO2	inconclusive [inhibitor, partial curve]	
Cc1ccc(CC(=O)NCc2ccc(Cl)cc2)cc1	inconclusive [inhibitor, single point]	
c1ccc(Nc2n[nH]nc2-c2ccccc2)cc1	inactive	
Cc1ccc(/C=C\c2nccc3c2[nH]c2ccccc23)cc1	inconclusive [inhibitor, partial curve]	
C=CCNC(=S)N1CCN(c2ncc(C(F)(F)F)cc2Cl)CC1	inconclusive [inhibitor, single point]	
Cn1c(=O)c2c(ncn2CC(O)CNc2cccc(Cl)c2)n(C)c1=O (stereo unspecified)	inconclusive [inhibitor, single point]	
